Laboratory results reported in the supplement of paper PMC8183993.
Structures can show the parent of a compound that is named as a salt. ± gives the standard deviation of the averaged measurements. Over roughly 3,100 compounds, “mean cytoplasmic OPP incorporation (global translation) relative to DMSO” has its median near 100; the lowest 2% begin near 56. The list shows a part of the results. Square brackets hold non-standard residues; d marks the D form. Peptide text beside a SMILES is read from it. * marks the point of attachment. Sta = CC(C)C[C@H](N)[C@@H](O)CC(=O)O; Isovaleryl = CC(C)CC(=O)*

tested on: U2OS; assay: mean cytoplasmic OPP incorporation (global translation) relative to DMSO (% of DMSO); higher = more protein synthesis; conditions: 10 µM; 24 h
Experimental: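 Primary image-based screen in U2OS cells: compounds at 10 uM for 24 h, then a 1 h o-propargyl-puromycin (OPP) pulse, click labelling, and high-throughput microscopy. Mean cytoplasmic OPP intensity and nuclei count were normalised to DMSO wells within each plate (DMSO = 100) and averaged over triplicate plates.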

Row | Compound | mean cytoplasmic OPP incorporation
1 | CN(C)CCOc1ccc(/C(=C(/CCCl)c2ccccc2)c2ccccc2)cc1 [Toremifene] | 118
2 | CCN1CCN(C(=O)N[C@@H](C(=O)N[C@@H]2C(=O)N3C(C(=O)O)=C(CSc4nnnn4C)CS[C@H]23)c2ccc(O)cc2)C(=O)C1=O [Cefoperazone dihydrate] | 97.1
3 | CNC(=O)[C@H](Cc1c[nH]c2ccccc12)NC(=O)[C@@H](CC(=O)NO)CC(C)C | 100
4 | C[C@H]1C[C@H]2[C@@H]3CCC4=CC(=O)C=C[C@]4(C)[C@@]3(F)[C@@H](O)C[C@]2(C)[C@@]1(O)C(=O)CO [Betamethasone (Celestone)] | 101
5 | C[C@H]1C[C@H]2[C@@H]3CCC4=CC(=O)C=C[C@]4(C)[C@@]3(F)[C@@H](O)C[C@]2(C)[C@@]1(O)C(=O)CO [Betamethasone] | 101
6 | CCCC(CCC)C(=O)NO [Valproic acid hydroxamate] | 110
7 | Cc1cc(/C(=C/Nc2ccc(Cl)cc2)C(=O)Nc2ccc(Cl)cc2)on1 | 99.7
8 | Oc1ccc(OCc2ccccc2)cc1 [Monobenzone] | 86.1
9 | CNC(=O)c1cc(COc2nnc(Nc3ccc(Cl)cc3)c3ccoc23)ccn1 [Telatinib (BAY 57-9352)] | 109
10 | CCCc1nc(C)c2c(=O)nc(-c3cc(S(=O)(=O)N4CCN(CC)CC4)ccc3OCC)[nH]n12 [Vardenafil Hydrochloride Trihydrate (Vivanza)] | 117
11 | CCCc1nc(C)c2c(=O)nc(-c3cc(S(=O)(=O)N4CCN(CC)CC4)ccc3OCC)[nH]n12 [Vardenafil] | 109
12 | O=C(O)/C=C/c1ccc(Cn2ccnc2)cc1 [Ozagrel hydrochloride] | 103.5 ± 0.18
13 | COc1cc2nccc(Oc3ccc(NC(=O)C4(C(=O)Nc5ccc(F)cc5)CC4)cc3)c2cc1OC [XL-184 free base (Cabozantinib)] | 106
14 | COc1cc2nccc(Oc3ccc(NC(=O)C4(C(=O)Nc5ccc(F)cc5)CC4)cc3)c2cc1OC [Cabozantinib malate] | 102
15 | CCOc1nc2cccc(C(=O)O)c2n1Cc1ccc(-c2ccccc2-c2noc(=O)[nH]2)cc1 [Azilsartan (TAK-536)] | 88.7
16 | COCCOC(=O)C1=C(C)NC(C)=C(C(=O)OC/C=C/c2ccccc2)C1c1cccc([N+](=O)[O-])c1 (centres undefined) [Cilnidipine] | 103 ± 9.3
17 | CCCCNc1ccc(C(=O)OCCOCCOCCOCCOCCOCCOCCOCCOCCOC)cc1 [Benzonatate] | 113
18 | Cc1cc([C@@H](C)Nc2ccccc2C(=O)O)c2nc(N3CCOCC3)cc(=O)n2c1 | 99.5
19 | O=C1c2ccccc2C(Cc2ccnc(F)c2)(Cc2ccnc(F)c2)c2ccccc21 | 98.4
20 | CCCCN1CCC(CCC(=O)c2cc(Cl)c(N)cc2OC)CC1 | 111
21 | Cc1cc(/C=C/c2ccc3cc(N(C)C)ccc3[n+]2C)c(C)n1-c1ccccc1 [Pyrvinium pamoate] | 22
22 | CCn1nc(C(=O)O)c(=O)c2cc3c(cc21)OCO3 [Cinoxacin] | 104
23 | CC[C@H]1OC(=O)[C@H](C)[C@@H](O[C@H]2C[C@@](C)(OC)[C@@H](O)[C@H](C)O2)[C@H](C)[C@@H](O[C@@H]2O[C@H](C)C[C@H](N(C)C)[C@H]2O)[C@](C)(O)C[C@@H](C)[C@@H]2N[C@@H](COCCOC)O[C@H]([C@H]2C)[C@]1(C)O [Dirithromycin] | 103

Row | Compound | mean cytoplasmic OPP incorporation
24 | CC(C)c1cc(-c2ccc(F)c3ccccc23)nc(N)n1 | 103
25 | O=C(NOC[C@H](O)CO)c1ccc(F)c(F)c1Nc1ccc(I)cc1F | 93.8
26 | Cc1cc(C)c(/C=C2\C(=O)Nc3ccccc32)[nH]1 | 88.6
27 | Cc1cc(C)c(/C=C2\C(=O)Nc3ccccc32)[nH]1 [Semaxanib (SU5416)] | 89.7
28 | CCn1ccnc1CC1COc2ccccc2O1 (centres undefined) [Imiloxan hydrochloride] | 91.2
29 | CNC(C)C1CCC(N)C(OC2C(N)CC(N)C(OC3OCC(C)(O)C(NC)C3O)C2O)O1 (centres undefined) [Gentamycin sulfate (Gentacycol)] | 107
30 | Cc1c(F)cc(C(=O)NC2CC2)cc1-c1ccc(C(=O)NCC(C)(C)C)cn1 [Losmapimod] | 99.2
31 | COc1ccc(S(=O)(=O)N(C(C)=O)c2ccccc2/C=C/c2cc[n+]([O-])cc2)cc1 | 89.5 ± 5.8
32 | Nc1nc(NCCc2ccc(O)cc2)nc2nc(-c3ccco3)nn12 | 99.2
33 | O=C(/C=C/c1ccc(CN(CCO)CCc2c[nH]c3ccccc23)cc1)NO [LAQ824 (NVP-LAQ824, Dacinostat)] | 47.7
34 | O=c1cc[nH]c(=S)[nH]1 [2-Thiouracil] | 101
35 | CC(C)CC(=O)N[C@H](C(=O)N[C@H](C(=O)N[C@@H](CC(C)C)[C@@H](O)CC(=O)N[C@@H](C)C(=O)N[C@@H](CC(C)C)[C@@H](O)CC(=O)O)C(C)C)C(C)C [Pepstatin A] (Isovaleryl-VV[Sta]A[Sta]-OH) | 101.8 ± 0.43
36 | N[C@H](C(=O)O)c1cc(O)cc(O)c1 | 102
37 | Cc1cccc(C#Cc2ccccc2)n1 [MPEP hydrochloride] | 103
38 | c1ccc(C(NCc2cccnc2)(c2ccccc2)c2ccccc2)cc1 | 104
39 | C[C@H](O)C(=O)Nc1c(I)c(C(=O)NC(CO)CO)c(I)c(C(=O)NC(CO)CO)c1I [Iopamidol] | 93.8
40 | COC(=O)C1=C(C)NC(C)=C(C(=O)OCCSc2ccccc2)C1C (centres undefined) | 110
41 | CC1Cc2ccccc2N1NC(=O)c1ccc(Cl)c(S(N)(=O)=O)c1 (centres undefined) [Indapamide] | 70.1
42 | CO/N=C(\C(=O)N[C@@H]1C(=O)N2C(C(=O)O)=C(Cn3ccc(=N)n3CCO)CS[C@H]12)c1csc(N)n1 [Cefoselis sulfate] | 98.3
43 | C=CC(=O)Nc1ccc2ncnc(Nc3cccc(Br)c3)c2c1 | 80.7 ± 1.2
44 | CO/N=C(\C(=O)N[C@@H]1C(=O)N2C(C(=O)O)=C(COC(N)=O)CS[C@H]12)c1ccco1 [Cefuroxime sodium salt] | 101
45 | O=C(NCC(O)CO)c1c(I)c(C(=O)NCC(O)CO)c(I)c(N(CCO)C(=O)CO)c1I (centres undefined) [Ioversol] | 102
46 | Nc1ccc(S(=O)(=O)Nc2ccnn2-c2ccccc2)cc1 [Sulfaphenazole] | 97.1

Row | Compound | mean cytoplasmic OPP incorporation
47 | COc1cc(/C=C(\C#N)C(N)=O)cc(CSc2nc3ccccc3s2)c1O | 109
48 | CCOCC(O)COc1ccc(NC(=O)CC[S+](C)C)cc1 (centres undefined) [Suplatast tosylate] | 97.5
49 | COc1cc(C#N)ccc1S(=O)(=O)Nc1ccc2c(c1)cc(C)c(=O)n2C | 109
50 | O=C(O)C1=CCCNC1 [Guvacine hydrochloride] | 106
51 | Cc1cc(CC(=O)O)n(C)c1C(=O)c1ccc(Cl)cc1 [Zomepirac sodium salt] | 91.7
52 | CCCCCCCCCCCCCCCC(=O)O[C@@H]1[C@@H](O)[C@@H](O)[C@@H]([C@H](NC(=O)[C@@H]2C[C@@H](CCC)CN2C)[C@H](C)Cl)O[C@@H]1SC [Clindamycin palmitate HCl] | 106
53 | CC(C)=CCC/C(C)=C/CC/C(C)=C/CSCC(=O)O [Farnesylthioacetic acid] | 96.1
54 | CC#CCOC(=O)C1=CCCN(C)C1 [Arecaidine but-2-ynyl ester tosylate] | 97.6
55 | C[C@H](CCC(=O)O)[C@H]1CC[C@H]2[C@@H]3CC[C@@H]4C[C@H](O)CC[C@]4(C)[C@H]3C[C@H](O)[C@]12C [Sodium Deoxycholic acid] | 114
56 | C[C@H](CCC(=O)O)[C@H]1CC[C@H]2[C@@H]3CC[C@@H]4C[C@H](O)CC[C@]4(C)[C@H]3C[C@H](O)[C@]12C [Deoxycholic acid] | 99.4
57 | O=C(NCCS(=O)(=O)c1ccc(C(F)(F)F)cn1)c1ccc(Cl)cc1 | 96.6
58 | C=C1CC[C@H](O)C/C1=C/C=C1\CCC[C@]2(C)[C@@H]([C@H](C)CCCC(C)(C)O)CC[C@@H]12 [25-Hydroxyvitamin D3] | 110
59 | C=C1CC[C@H](O)C/C1=C/C=C1\CCC[C@]2(C)[C@@H]([C@H](C)CCCC(C)(C)O)CC[C@@H]12 [Calcifediol] | 103
60 | CC(C)CC(=O)Nc1n[nH]c2c1CN(C(=O)C1CCN(C)CC1)C2(C)C | 65.9
61 | OC(c1ccccc1)C1CCN(CCc2ccccc2)CC1 (centres undefined) | 98.2
62 | COc1ccc(NC(=O)c2cc(OCCCN(C)C)nn2Cc2ccccc2)cc1 [CFM 1571 hydrochloride] | 102
63 | Nc1nc(=O)c2nc(CNc3ccc(C(=O)N[C@@H](CCC(=O)O)C(=O)O)cc3)cnc2[nH]1 [Folic acid] | 104
64 | CC(=O)N[C@@H](CC(C)C)C(=O)O [N-Acetyl-L-leucine] | 104
65 | Nc1nc(F)nc2c1ncn2[C@@H]1O[C@H](CO)[C@@H](O)[C@@H]1O [Fludarabine] | 101.3 ± 0.22
66 | Nc1nc(F)nc2c1ncn2[C@@H]1O[C@H](CO)[C@@H](O)[C@@H]1O [Fludarabine (Fludara)] | 99.4
67 | CC[C@H]1OC(=O)[C@H](C)[C@@H](O[C@H]2C[C@@](C)(OC)[C@@H](O)[C@H](C)O2)[C@H](C)[C@@H](O[C@@H]2O[C@H](C)C[C@H](N(C)C)[C@H]2O)[C@](C)(O)C[C@@H](C)/C(=N\OCOCCOC)[C@H](C)[C@@H](O)[C@]1(C)O [Roxithromycin] | 107
68 | CC[C@H]1OC(=O)[C@H](C)[C@@H](O[C@H]2C[C@@](C)(OC)[C@@H](O)[C@H](C)O2)[C@H](C)[C@@H](O[C@@H]2O[C@H](C)C[C@H](N(C)C)[C@H]2O)[C@](C)(O)C[C@@H](C)/C(=N\OCOCCOC)[C@H](C)[C@@H](O)[C@]1(C)O [Roxithromycin (Roxl-150)] | 113
69 | CN(C)Cc1c(C(=O)NCCOc2ccc(C(=O)NO)cc2)oc2ccccc12 | 56
